Sequences and labels used below:
B1: CNBP, P62633 (protein)
chain: MSSNECFKCGRSGHWARECPTGGGRGRGMRSRGRGGFTSDRGFQFVSSSLPDICYRCGESGHLAKDCDLQEDACYNCGRGGHIAKDCKEPKREREQCCYNCGKPGHLARDCDHADEQKCYSCGEFGHIQKDCTKVKCYRCGETGHVAINCSKTSEVNCYRCGESGHLARECTIEATA
B2: ZNF35, P13682 (protein)
chain: MTAELREAMALAPWGPVKVKKEEEEEENFPGQASSQQVHSENIKVWAPVQGLQTGLDGSEEEEKGQNISWDMAVVLKATQEAPAASTLGSYSLPGTLAKSEILETHGTMNFLGAETKNLQLLVPKTEICEEAEKPLIISERIQKADPQGPELGEACEKGNMLKRQRIKREKKDFRQVIVNDCHLPESFKEEENQKCKKSGGKYSLNSGAVKNPKTQLGQKPFTCSVCGKGFSQSANLVVHQRIHTGEKPFECHECGKAFIQSANLVVHQRIHTGQKPYVCSKCGKAFTQSSNLTVHQKIHSLEKTFKCNECEKAFSYSSQLARHQKVHITEKCYECNECGKTFTRSSNLIVHQRIHTGEKPFACNDCGKAFTQSANLIVHQRSHTGEKPYECKECGKAFSCFSHLIVHQRIHTAEKPYDCSECGKAFSQLSCLIVHQRIHSGDLPYVCNECGKAFTCSSYLLIHQRIHNGEKPYTCNECGKAFRQRSSLTVHQRTHTGEKPYECEKCGAAFISNSHLMRHHRTHLVE
B3: MEIS1, O00470 (protein)
chain: MAQRYDDLPHYGGMDGVGIPSTMYGDPHAARSMQPVHHLNHGPPLHSHQYPHTAHTNAMAPSMGSSVNDALKRDKDAIYGHPLFPLLALIFEKCELATCTPREPGVAGGDVCSSESFNEDIAVFAKQIRAEKPLFSSNPELDNLMIQAIQVLRFHLLELEKVHELCDNFCHRYISCLKGKMPIDLVIDDREGGSKSDSEDITRSANLTDQPSWNRDHDDTASTRSGGTPGPSSGGHTSHSGDNSSEQGDGLDNSVASPSTGDDDDPDKDKKRHKKRGIFPKVATNIMRAWLFQHLTHPYPSEEQKKQLAQDTGLTILQVNNWFINARRRIVQPMIDQSNRAVSQGTPYNPDGQPMGGFVMDGQQHMGIRAPGPMSGMGMNMGMEGQWHYM
B4: IRF1, P10914 (protein)
chain: MPITRMRMRPWLEMQINSNQIPGLIWINKEEMIFQIPWKHAAKHGWDINKDACLFRSWAIHTGRYKAGEKEPDPKTWKANFRCAMNSLPDIEEVKDQSRNKGSSAVRVYRMLPPLTKNQRKERKSKSSRDAKSKAKRKSCGDSSPDTFSDGLSSSTLPDDHSSYTVPGYMQDLEVEQALTPALSPCAVSSTLPDWHIPVEVVPDSTSDLYNFQVSPMPSTSEATTDEDEEGKLPEDIMKLLEQSEWQPTNVDGKGYLLNEPGVQPTSVYGDFSCKEEPEIDSPGGDIGLSLQRVFTDLKNMDATWLDSLLTPVRLPSIQAIPCAP
B5: ZNF451, Q9Y4E5 (protein)
chain: MGDPGSEIIESVPPAGPEASESTTDENEDDIQFVSEGPLRPVLEYIDLVSSDDEEPSTSYTDENIKRKDHIDYQKDKVALTLARLARHVEVEKQQKEEKNRAFREKIDFQHAHGLQELEFIRGHSDTEAARLCVDQWLKMPGLKTGTINCGTKSSFRRGGHTWVSGKPILCPIMHCNKEFDNGHLLLGHLKRFDHSPCDPTITLHGPFFSSFACVVCYKKFVTQQQYRDHLFDKEATDDGHNNNLLPQIIQCFACPNCFLLFSRKEECSKHMSGKNHFHQSFKLGDNKGIAHPISFPSFAKKLLISLCKDVPFQVKCVACHKTLRSHMELTAHFRVHCRNAGPVAVAEKSITQVAEKFILRGYCPDCNQVFVDETSTQNHKQNSGHKVRVINSVEESVLLYCHSSEGNKDPSSDLHLLLDQSKFSSLKRTMSIKESSSLECIAIPKKKMNLKDKSHEGVACVQKEKSVVKTWFCECNQRFPSEDAVEKHVFSANTMGYKCVVCGKVCDDSGVIRLHMSRIHGGAHLNNFLFWCRTCKKELTRKDTIMAHVTEFHNGHRYFYEMDEVEGETLPSSSTTLDNLTANKPSSAITVIDHSPANSSPRGKWQCRICEDMFDSQEYVKQHCMSLASHKFHRYSCAHCRKPFHKIETLYRHCQDEHDNEIKIKYFCGLCDLIFNVEEAFLSHYEEHHSIDYVFVSEKTETSIKTEDDFPVIETSNQLTCGCRESYICKVNRKEDYSRCLQIMLDKGKLWFRCSLCSATAQNLTDMNTHIHQVHKEKSDEEEQQYVIKCGTCTKAFHDPESAQQHFHRKHCFLQKPSVAHFGSEKSNLYKFTASASHTERKLKQAINYSKSLDMEKGVENDLSYQNIEEEIVELPDLDYLRTMTHIVFVDFDNWSNFFGHLPGHLNQGTFIWGFQGGNTNWKPPLNCKIYNYLNRIGCFFLHPRCSKRKDAADFAICMHAGRLDEQLPKQIPFTILSGDQGFLELENQFKKTQRPAHILNPHHLEGDMMCALLNSISDTTKECDSDDNMGAKNTSIGEEFISTEDVELEEAIRRSLEEM
B6: ELF3, P78545 (protein)
chain: MAATCEISNIFSNYFSAMYSSEDSTLASVPPAATFGADDLVLTLSNPQMSLEGTEKASWLGEQPQFWSKTQVLDWISYQVEKNKYDASAIDFSRCDMDGATLCNCALEELRLVFGPLGDQLHAQLRDLTSSSSDELSWIIELLEKDGMAFQEALDPGPFDQGSPFAQELLDDGQQASPYHPGSCGAGAPSPGSSDVSTAGTGASRSSHSSDSGGSDVDLDPTDGKLFPSDGFRDCKKGDPKHGKRKRGRPRKLSKEYWDCLEGKKSKHAPRGTHLWEFIRDILIHPELNEGLMKWENRHEGVFKFLRSEAVAQLWGQKKKNSNMTYEKLSRAMRYYYKREILERVDGRRLVYKFGKNSSGWKEEEVLQSRN
B7: CREB5, Q02930 (protein)
chain: MIYEESKMNLEQERPFVCSAPGCSQRFPTEDHLMIHRHKHEMTLKFPSIKTDNMLSDQTPTPTRFLKNCEEVGLFSELDCSLEHEFRKAQEEESSKRNISMHNAVGGAMTGPGTHQLSSARLPNHDTNVVIQQAMPSPQSSSVITQAPSTNRQIGPVPGSLSSLLHLHNRQRQPMPASMPGTLPNPTMPGSSAVLMPMERQMSVNSSIMGMQGPNLSNPCASPQVQPMHSEAKMRLKAALTHHPAAMSNGNMNTMGHMMEMMGSRQDQTPHHHMHSHPHQHQTLPPHHPYPHQHQHPAHHPHPQPHHQQNHPHHHSHSHLHAHPAHHQTSPHPPLHTGNQAQVSPATQQMQPTQTIQPPQPTGGRRRRVVDEDPDERRRKFLERNRAAATRCRQKRKVWVMSLEKKAEELTQTNMQLQNEVSMLKNEVAQLKQLLLTHKDCPITAMQKESQGYLSPESSPPASPVPACSQQQVIQHNTITTSSSVSEVVGSSTLSQLTTHRTDLNPIL

The other results are listed elsewhere or left out. Binding of human transcription factors and regulators to the viral nucleoprotein by AlphaScreen, crude cell-free proteins, amounts not normalised, one pass. Fold of the Venus control; higher = more signal. No active / inactive call. Single-pass screen; sequences are the whole Swiss-Prot entries looked up by name.

This assay deals with nucleoprotein N of Crimean-Congo hemorrhagic fever virus. The experiment in a line: AlphaScreen luminescence signal relative to Venus negative control (fold); higher = stronger binding to CCHFV N. Here is the method: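 AlphaScreen binding of cell-free made, FLAG-GST-tagged human transcription factors and regulators (crude translation products) to biotinylated N protein; signal as fold of the FLAG-GST-Venus control. One pass.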
(In general: Alpha assays give light when donor and acceptor beads are brought close together.)
For B1, the AlphaScreen luminescence signal came to 3.86.
Under B2 stands 2; under B3, 2.33; under B4, 4.74.
Under B5 stands 3.26.
The same measure for B6: 2.14; for B7: 2.05.

The values above are taken from the supplement of paper PMC12423691.
